Measurements published in ChEMBL document CHEMBL1157539, “Thousands of chemical starting points for antimalarial lead identification” (Nature, 2010).
In all, about 13,000 compounds were measured (“IFI”: median about 4, highest 2% from about 17 on). The list shows a part of the results.

Assay: GSK_TCMDC: Inhibition Frequency Index (IFI). The number of non-kinase HTS assays where a compound showed > 50 % inhibition, expressed as a percentage of the number of such assays in which the compound was tested (-0 is zero)
Format: functional

SMILES	IFI [%]
COc1cc(NC(=O)c2cccc([N+](=O)[O-])c2)cc(S(=O)(=O)c2ccc(Cl)cc2)c1	1.92
CCc1nc2c(cnn2CC)c(NC2CCOCC2)c1CNC(=O)N1CCOCC1	0
O=C(NC1CCN(c2ccnc3cc(Cl)ccc23)C1)c1cccc(F)c1 (stereo unspecified)	1.52
COc1cc2ncnc(Nc3ccc(OC(F)(F)c4ccccc4)cc3)c2cc1OC	1.44
Cc1cccc(-n2c(Nc3ccc(C)c(Cl)c3)nc3ccc(S(=O)(=O)NC(C)C(C)C)cc32)c1 (stereo unspecified)	2.24
COc1ccccc1NC(=S)N/N=C/c1ccc(O)cc1O	7.19
O=C(NC1CC1c1ccccc1)N(CCCn1ccnc1)Cc1csc(-c2ccc(CNCc3ccccc3)cc2)n1 (stereo unspecified)	4.7
O=C(/C=C/c1c(Cl)cccc1Cl)NC1CCC(CN2CCC(Cc3cc4ccccc4[nH]3)CC2)CC1 (stereo unspecified)	9.16
COc1cc(C=Cc2ccc3ccccc3n2)cc(Br)c1OCC(=O)N(C)C	4.44
CCC[C@@H]([C@@H](CC(C)C)C(=O)N[C@@H](CCCCNC(=O)OCc1ccccc1)C(=O)Nc1ncccn1)N(O)C=O	2.91
CCCCCc1ccc(NC(=O)Nc2ccc(Cn3ncc(N4CCCNCC4)c(Cl)c3=O)cc2)cc1	9.09
O=C(Nc1ccc(OC(F)(F)F)cc1)Nc1ccc([N+](=O)[O-])cc1	20.1
Cc1cccc(-n2c(=O)c3c4c(sc3n3c(SCCC(C)C)nnc23)CCCC4)c1	2.14
Cc1csc(-c2ncc(OC[C@@H](N)Cc3ccccc3)cc2-c2ccc3[nH]nc(C)c3c2)c1	10.8
O=C(Nc1cccc(-c2cccc(-c3nc4cc(C(F)(F)F)ccc4[nH]3)c2)c1)c1ccc(=O)[nH]n1	2.73
N#Cc1ccc(CN2CCCN(c3ccc(NC(=O)c4ccc(F)cc4)cc3)CC2)cc1	8.33
CNC(=N)c1ccc(NC(=O)Nc2ccc(C(=N)NC)cc2)cc1	1.46
CN(Cc1ccc(-c2ccc(C(F)(F)F)cc2)cc1)C(=O)Cn1c(CCc2cccc(F)c2F)cc(=O)c2ccc(OCCCN3CCCCC3)cc21	6.99
O=C(NCCCCN1CCC(c2cccc3ccccc23)CC1)c1ccc(-c2ccc(C(F)(F)F)cn2)cc1	1.48
CNCCNCc1cccc(-c2ccc(-c3nc4ccccc4[nH]3)s2)c1	8
Cc1nc2nc(N)nc(N)c2c(C)c1Cc1ccc(C#N)cc1	2.9
CCC(C)c1cccc(C(C)CC)c1OCCCON1C(N)=NC(N)=NC1(C)C (stereo unspecified)	24.1
CCCCNC(=O)[C@@H]1CCCN1C(=O)c1ccc(O)c(-c2ccc(Cl)c(Cl)c2)c1	0.74

SMILES	IFI [%]
O=[N+]([O-])c1ccc(C=NNc2nc(Nc3ccccc3)nc(Nc3ccccc3)n2)o1	9.93
Cc1[nH]c(CNCCCNc2cc(=O)c3ccccc3[nH]2)c(Br)c1Br	2.86
Clc1ccc2c(NCc3ccccn3)ccnc2c1	0
CC1CCCC(C)N1C[C@@H](O)CNS(=O)(=O)c1cccc(C(F)(F)F)c1 (stereo partly specified)	1.98
COc1ccc(-c2nc3c(N)nc(N)nc3nc2-c2ccccc2Cl)cc1.COc1ccc(-c2nc3nc(N)nc(N)c3nc2-c2ccccc2Cl)cc1	3.68
COc1cccc(OC)c1C(=O)Nc1cccc(-c2nn3ccccc3c2-c2ccnc(Nc3cccc(F)c3)n2)c1	2.82
Cc1ccccc1C1CCN(c2ccc(NC(=O)c3ccc(Cl)nc3)cc2)CC1	2.04
CCCc1cc(Cc2cnc(N)nc2N)cc(CCC)c1OCCCCC(=O)OCC	7.91
Cc1cccc2nc(-c3cccc(-c4ccc(NC(=O)CCc5c[nH]cn5)cc4)c3)[nH]c12	1.74
COc1cccc(CNc2ncc(-c3ccsc3)c(-c3nccs3)n2)c1	5.68
CN1CCC(C(=O)Nc2cccc(-c3ccc(-c4nc5cc(F)ccc5[nH]4)cc3)c2)CC1	4.31
Fc1cccc2sc(Nc3nc(-c4ccccn4)cs3)nc12	8
COc1ccc2nccc(NC(=O)N3CCC(NCCOc4cc(F)cc(F)c4)CC3)c2n1	2.24
Fc1cccc(Nc2nc(NCCc3ccc(Cl)cc3)nc(Nc3cccc(F)c3)n2)c1	3.85
COc1ccc(Nc2nccc(N3CCC(NC(=O)C(C)c4ccc(Cl)cc4)CC3)n2)cc1 (stereo unspecified)	3.08
COc1ccc2ncc(F)c(CCN3CCC(CNC(=O)C(=O)c4c[nH]c5ccccc45)CC3)c2n1	2.96
Nc1cc(-c2ccc3c(N)nccc3c2)ccc1Cl	0
C=CCc1ccc(C2CCN(CCCCNC(=O)c3ccc(NC(=O)c4ccc(Cl)cc4)cc3)CC2)cc1	2.22
Cn1cc(CCNc2ccnc(N3CCC(c4ncc[nH]4)CC3)n2)c2ccccc21	8.33
CN(CCCN(C)c1cc(NC(=O)c2ccc(F)cc2)ccn1)Cc1cccc(F)c1	2.94
CCCCCCCN(Cc1ccc(OC(C)(C)C(=O)OCC)cc1)C(=O)Nc1ccccc1OC(F)(F)F	1.43
CC1(C)N=C(NC(=O)c2ccc([N+](=O)[O-])cc2)N=C(N)N1OCc1ccc2ccccc2c1	1.46
COc1ccc2c(OC)cccc2c1CNCCCCCCNCc1c(OC)ccc2c(OC)cccc12	13.7

SMILES	IFI [%]
Clc1ccc2nc(-c3cccnc3)[nH]c2c1	1.33
Cc1cccc(C(=O)Nc2ccnc(N3CCC(N(C)Cc4ccc(C#N)cc4)CC3)c2)c1	2.44
Cc1ccc(O)cc1Nc1ccnc2ccc(C(C)(C)C)cc12	0.74
CCN(CCCN1CCCCC1)c1nc(C)cc(Nc2ccc(Cl)cc2)n1	1.85
Nc1ccc(-c2ccc3ccnc(N)c3c2)cn1	5.56
CCOc1cc(C(=O)NC2CCN(Cc3ccccc3)CC2)ccc1-c1nc2cc(Cl)ccc2[nH]1	0.7
O=C(NC(Nc1ccc([N+](=O)[O-])cc1)C(Cl)(Cl)Cl)c1ccc(Cl)cc1 (stereo unspecified)	19.9
CN1CCC(C(=O)N(Cc2ccc(-c3ccc(CNCCc4ccccc4)cn3)cc2)Cc2cccc(F)c2)CC1	5.56
COc1ccc2ncc(F)c(CCN3CC(O)C(CNCc4ccc5c(n4)NC(=O)CS5)C3)c2c1 (stereo unspecified)	2.86
O=C(NCCN1CCCC1)c1cccc(Nc2nccc(Nc3ccc(Oc4ccccc4)cc3)n2)c1	5.88
CSc1ccc2ccccc2c1CCNCCCCNCCc1c(SC)ccc2ccccc12	17
Cc1cccc2nc(-c3ccc(-c4cccc(CN5CC(C)OC(C)C5)c4)s3)[nH]c12 (stereo unspecified)	5.63
Cc1sc2nc(CSc3ccccc3)nc(N3CCN(CC(=O)N4CCCC4)CC3)c2c1C	3.77
Cc1cc(=O)c2cc(-c3ccc(OC(F)(F)F)cc3)ccc2[nH]1	0
Cc1noc(-c2ccc(NC[C@@H](C)NC[C@H](O)c3cccc(Cl)c3)cc2)n1	0.69
Cc1cccc2nc(-c3ccc(-c4cccc(CNCCN(C)C)c4)cc3)[nH]c12	6.73
CC(C)C1C(O)=C(c2ccc3ccccc3c2)C(=O)N1CC1CCCCC1 (stereo unspecified)	0.68
Fc1cccc(COc2ccc(Nc3ncnc4cc(/C=C/[C@@H]5CCCN5)sc34)cc2Cl)c1	8.55
Cc1nnc2c(NC(=O)NC3CCCC3)cc3cc(-c4ccc(CN5CCN(C)CC5)cc4)ccc3n12	6.45
COc1cc(Cc2cnc(N)nc2N)cc(OCCCN2C(=O)c3ccccc3C2=O)c1OC	0
CN(C)CCn1cc(C(=O)c2cc(Cl)ccc2O)cc1-c1nc2ccccc2c(=O)[nH]1	1.96
Cc1cc(N[C@@H](Cc2ccccc2)C(=O)NC2CCCC2)nc(NCCOc2ccccc2)n1	15.6
CC1CN(c2cnn(Cc3cccc(NC(=O)Nc4ccc(F)cc4[N+](=O)[O-])c3)c(=O)c2Cl)CC(C)N1 (stereo unspecified)	-0

SMILES	IFI [%]
CN1CCC(NCc2cccc(-c3cccc(S(=O)(=O)NCc4ccccc4)c3)c2)CC1	11.2
O=C(Nc1ccccc1)NC1CCN(CCC2(c3ccc(Cl)c(Cl)c3)COCN(C(=O)c3ccccc3)C2)C1 (stereo unspecified)	3.47
COc1cc2nc(N3CCC(CCCC4CCNCC4)CC3)nc(NCc3ccccn3)c2cc1OC	6.34
O=[N+]([O-])c1cccc(CNCC2CCC(CNCc3cccc([N+](=O)[O-])c3)CC2)c1 (stereo unspecified)	8.7
COc1cccc(Nc2nccc(-c3c(-c4cccc(NC(=O)c5c(F)cccc5F)c4)nn4ccccc34)n2)c1	4.39
CCOC(=O)N[C@@H]1CN[C@@H](C#Cc2cc3c(Nc4ccc(OCc5cccc(F)c5)c(Cl)c4)ncnc3s2)C1	1.48
COc1ccc2nc(N(CCCn3ccnc3)C(=O)C=Cc3cccs3)sc2c1	-0
CCn1c(-c2nonc2N)nc2cnc(Oc3cccc(NC(=O)c4ccc(OCCN5CCCC5)cc4)c3)cc21	7.48
Cc1nnc(NC(=O)c2cn(-c3ccccc3)nc2-c2ccccc2C)o1	-0
COc1ccc2ncc(F)c(CCN3CC(O)C(CNCc4ccc5oc(=O)ccc5c4)C3)c2n1 (stereo unspecified)	1.92
Cc1cc(-c2ccc3occ(CCN)c3c2)cnc1N	3.13
CC(NCC(O)Cn1c2ccccc2c2ccccc21)c1ccccc1 (stereo unspecified)	7.64
CC(C)N1CCC(NCc2ccc(-c3ccc(Cl)cc3)cc2)CC1	5
Cc1ccc(C(=O)Nc2cccc([N+](=O)[O-])c2)cc1S(=O)(=O)N1CC(C)CC(C)C1 (stereo unspecified)	2.9
C=C1C(C(=O)OCC)=CN(CC)c2cc(O[C@@H]3CCN(C(=O)OC(C)(C)C)C3)ccc21	-0
COc1ccc2c(-c3ccccc3)noc2c1	2.07
c1cc(-c2ccc(CNC3CCOCC3)cc2)cc(-c2nc3ccccc3[nH]2)c1	0.97
COc1ccc(-c2nc(NCc3ccccc3)c3cc(OC)c(OC)cc3n2)cc1	2.99
COc1ccc(-c2ncnc(C(F)(F)F)c2-c2ccc(Cl)cc2)c(O)c1	1.5
CCc1c(C)nc(-n2nc(C)cc2NC(=O)CCc2ccccc2)[nH]c1=O	7.84
O=C(NC1CCN(Cc2ccccc2)CC1)c1cccc(-c2cc3cc(Cl)c(Cl)cc3[nH]2)c1	0.72
O=c1cc(NCCCNCc2cccc(I)c2)[nH]c2ccccc12	5.04
